Data from US20190225650A1, “PEPTIDOMIMETIC MACROCYCLES AND USE THEREOF IN REGULATING HIF1ALPHA” (AILERON THERAPEUTICS, INC., priority 2013, published 2019).
For at least one compound, name, drawing or mass did not settle the structure. Bridge positions count the residues as written; N and C are the ends. Square brackets hold non-standard residues; d marks the D form. Peptide text beside a SMILES is read from it. R8 = C=CCCCCCC[C@@](C)(N)C(=O)O; S5 = C=CCCC[C@](C)(N)C(=O)O; Nle = CCCC[C@H](N)C(=O)O; Abu = CC[C@H](N)C(=O)O

What follows are compounds tested against T1, flag-tagged HIF1α (AA 786-826) / His6-tagged p300 (AA 323-423) complex (Homo sapiens, UniProt Q09472) (assay: HIF1α p300 displacement assay (TR FRET, +CHAPS)). Details: read-out: IC50 (nM) (HIF1α_p300 Displacement + CHAPS).
T1 construct: His6-tagged p300 (AA 323-423); made in house; host or cells: E. coli (pETDuet vector)
Format: binding
Procedure: The ability of peptides to displace HIF1α c-terminal trans-activation domain from p300-CH was measured by a TR FRET assay. A complex of flag-tagged HIF1α (AA 786-826) and His6-tagged p300 (AA 323-423) was co-expressed using pETDuet vector (EMDMillipore, Bellrica Mass.) and purified from E. coli in the presence of 0.1 mM ZnSO4. The complex was diluted to 300 nM final in complete assay media and competitor peptides were added. The complete assay media contained 150 mM NaCl (Sigma +S5150 or equivalent), 20 mM HEPES pH 7.4 (Boston Bioproducts, Ashland, Mass.; #BB-2076), 7.5 mM CHAPS (Thermo #28300 or equivalent), and 1 mM DTT. Protein and peptide were incubated at room temperature for 1 hour before the addition of anti-Flag-K and anti-6×HIS-D2 (CisBio, Bedford Mass.) HTRF reconstitution buffer (50 mM Phosphate pH 7, 0.8 Potassium Flouride, BSA 0.2%)^1 to a final concentration of 0.5 μM and 4 nM respectively. The reaction continued for an additional two hours at room temperature. The reaction was read on a TECAN F500 plate reader with settings recommended by CisBio. The ratio of donor to acceptor fluorescence was calculated. The resulting data was analyzed with Graphpad Prism 5.0. IC50 values were calculated for both proteins using the One Site Fit-LogIC50 equation and presented in the column “IC50 (nM) (HIF1α_p300 Displacement+CHAPS)” of Table 6. ^1 Cisbio USA, Bedford, Mass.; 61HISDLB (lot 007A), 61FG2KLB (024A), HTRF Buffer (62RB3RDF)

T1 sequence (Q09472 323-423, one chain of several): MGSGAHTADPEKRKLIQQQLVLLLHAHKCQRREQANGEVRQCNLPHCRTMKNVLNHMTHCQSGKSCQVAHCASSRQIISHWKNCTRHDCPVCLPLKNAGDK

| Structure (SMILES) | IC50 |
| --- | --- |
| CCCC[C@H](NC(=O)[C@H](CC(C)C)NC(=O)[C@@H](NC(=O)[C@H](CCC(=O)O)NC(=O)[C@H](CCC(=O)O)NC(=O)[C@H](CC(=O)O)NC(=O)[C@@H](NC(=O)[C@H](Cc1ccccc1)NC(C)=O)[C@@H](C)CC)C(C)C)C(=O)N[C@@]1(C)CCCC=CCCC[C@@](C)(C(=O)N[C@@H](CCCC)C(=O)N[C@@H](C)C(=O)N[C@@H](CC(C)C)C(=O)N[C@@H](CC(=O)O)C(=O)N[C@@H](CCCNC(=N)N)C(=O)N[C@H](C(N)=O)[C@@H](C)CC)NC(=O)[C@H](C)NC(=O)[C@H](C(C)C)NC(=O)[C@H](CC(C)C)NC1=O [SP-19] (Ac-FIDEEVL[Nle][S5]LVA[S5][Nle]ALDRI-NH2; staple 9-13) | 200 to 400 nM |
| CC[C@@H]1NC(=O)[C@H](CC(=O)O)NC(=O)[C@H](Cc2ccc(O)cc2)NC(=O)[C@@](C)(NC(=O)[C@@H](NC(=O)[C@H](CC(C)C)NC(=O)[C@H](CCC(N)=O)NC(=O)[C@@H]2CCCN2C(=O)[C@H](CC(C)C)NC(=O)[C@H](CCC(=O)O)NC(=O)[C@H](CCCCN)NC(=O)[C@@H](NC(=O)[C@H](CCCNC(=N)N)NC(=O)[C@H](CC(=O)O)NC(=O)[C@H](CC(C)C)NC(=O)CNC(=O)[C@H](CCSC)NC(=O)[C@]2(C)CCCC=CCCCCCC[C@@](C)(NC(=O)[C@H](CCC(=O)O)NC(=O)[C@H](CCC(=O)O)NC(=O)[C@H](CC(=O)O)NC(=O)[C@@H](NC(=O)[C@H](Cc3ccccc3)NC(C)=O)[C@@H](C)CC)C(=O)N[C@@H](CC(C)C)C(=O)N[C@@H](CCSC)C(=O)N[C@@H](CO)C(=O)N[C@@H](CC(C)C)C(=O)N[C@@H](C(C)C)C(=O)N[C@@H]([C@@H](C)CC)C(=O)N2)[C@@H](C)CC)[C@@H](C)O)CCCC=CCCC[C@@](C)(C(=O)N[C@H](C(=O)N[C@@H](CC(N)=O)C(=O)N[C@@H](C)C(N)=O)C(C)C)NC1=O [SP-324] (Ac-FIDEE[R8]LMSLVI[S5]MGLDRIKELPQLT[S5]YD[Abu][S5]VNA-NH2; staple 6-13, 27-31) | 400 to 700 nM |
| CCCC[C@H](NC(=O)[C@H](CC(C)C)NC(=O)[C@@H](NC(=O)[C@H](CCC(=O)O)NC(=O)[C@H](CCC(=O)O)NC(=O)[C@H](CC(=O)O)NC(=O)[C@@H](NC(=O)[C@H](Cc1ccccc1)NC(C)=O)[C@@H](C)CC)C(C)C)C(=O)N[C@@]1(C)CCCC=CCCC[C@@](C)(C(=O)N[C@@H](CCCC)C(=O)N[C@@H](C)C(=O)N[C@@H](C)C(=O)N[C@@H](CC(=O)O)C(=O)N[C@@H](CCCNC(=N)N)C(=O)N[C@H](C(N)=O)[C@@H](C)CC)NC(=O)[C@H]([C@@H](C)CC)NC(=O)[C@H](C(C)C)NC(=O)[C@H](CC(C)C)NC1=O [SP-22] (Ac-FIDEEVL[Nle][S5]LVI[S5][Nle]AADRI-NH2; staple 9-13) | 400 to 700 nM |
| CC[C@H](C)[C@H](NC(=O)[C@H](CCCNC(=N)N)NC(=O)[C@H](CC(=O)O)NC(=O)[C@H](CC(C)C)NC(=O)[C@H](C)NC(=O)[C@H](CCSC)NC(=O)[C@H](CCC(=O)O)NC(=O)[C@]1(C)CCCC=CCCCCCC[C@@](C)(NC(=O)[C@H](CCC(=O)O)NC(=O)[C@H](CC(=O)O)NC(=O)[C@@H](NC(=O)[C@H](Cc2ccccc2)NC(C)=O)[C@@H](C)CC)C(=O)N[C@@H](C(C)C)C(=O)N[C@@H](CC(C)C)C(=O)N[C@@H](CCSC)C(=O)N[C@@H](CO)C(=O)N[C@@H](CC(C)C)C(=O)N[C@@H](C(C)C)C(=O)N1)C(N)=O [SP-175] (Ac-FIDE[R8]VLMSLV[S5]EMALDRI-NH2; staple 5-12) | 400 to 700 nM |
| CC[C@H](C)[C@H](NC(=O)[C@H](Cc1ccccc1)NC(C)=O)C(=O)N[C@@H](CC(=O)O)C(=O)N[C@@H](CCC(=O)O)C(=O)N[C@@H](CCC(=O)O)C(=O)N[C@H](C(=O)N[C@@H](CC(C)C)C(=O)N[C@@]1(C)CCCC=CCCC[C@@](C)(C(=O)N[C@@H](CCC(=O)O)C(=O)N[C@@H](CCSC)C(=O)NCC(=O)N[C@@H](CC(C)C)C(=O)N[C@@H](CC(=O)O)C(=O)N[C@@H](CCCNC(=N)N)C(=O)N[C@H](C(=O)N[C@@H](CCCCN)C(=O)N[C@@H](CCC(=O)O)C(=O)N[C@@H](CC(C)C)C(=O)N2CCC[C@H]2C(=O)N[C@@H](CCC(=O)O)C(=O)N[C@@H](CC(C)C)C(=O)N[C@@H](Cc2c[nH]c3ccccc23)C(=O)N[C@@H](CC(C)C)C(N)=O)[C@@H](C)CC)NC(=O)[C@H](C(C)C)NC(=O)[C@H](CC(C)C)NC(=O)[C@H](CO)NC1=O)C(C)C [SP-79] (Ac-FIDEEVL[S5]SLV[S5]EMGLDRIKELPELWL-NH2; staple 8-12) | > 700 nM |
| CCCC[C@H](NC(=O)[C@H](Cc1ccccc1)NC(=O)[C@@H](NC(=O)[C@H](C)NC(=O)[C@H](CCC(N)=O)NC(=O)[C@H](CC(=O)O)NC(=O)[C@@H](NC(=O)[C@H](Cc1ccccc1)NC(C)=O)[C@@H](C)CC)C(C)C)C(=O)N[C@@]1(C)CCCC=CCCC[C@@](C)(C(=O)N[C@@H](CCCC)C(=O)N[C@@H](C)C(=O)N[C@@H](CC(C)C)C(=O)N[C@@H](CC(C)C)C(N)=O)NC(=O)[C@H]([C@@H](C)CC)NC(=O)[C@H](C(C)C)NC(=O)[C@H](Cc2c[nH]cn2)NC1=O [SP-254] (Ac-FIDQAVF[Nle][S5]HVI[S5][Nle]ALL-NH2; staple 9-13) | > 700 nM |
| CCCC[C@H](NC(=O)[C@H](CC(C)C)NC(=O)[C@@H](NC(=O)[C@H](CCC(=O)O)NC(=O)[C@H](CCC(=O)O)NC(=O)[C@H](CC(=O)O)NC(=O)[C@@H](NC(=O)[C@H](Cc1ccccc1)NC(C)=O)[C@@H](C)CC)C(C)C)C(=O)N[C@@]1(C)CCCC=CCCC[C@@](C)(C(=O)N[C@@H](CCCC)C(=O)N[C@@H](C)C(=O)N[C@@H](CC(C)C)C(=O)N[C@@H](CC(=O)O)C(=O)N[C@@H](CCCNC(=N)N)C(=O)N[C@H](C(N)=O)[C@@H](C)CC)NC(=O)[C@H]([C@@H](C)CC)NC(=O)[C@H](C(C)C)NC(=O)[C@H](C)NC1=O [SP-17] (Ac-FIDEEVL[Nle][S5]AVI[S5][Nle]ALDRI-NH2; staple 9-13) | 200 to 400 nM |
| CCCC[C@H](NC(=O)[C@H](CC(C)C)NC(=O)[C@@H](NC(=O)[C@H](CCC(=O)O)NC(=O)[C@H](CCC(=O)O)NC(=O)[C@H](CC(=O)O)NC(=O)[C@@H](NC(=O)[C@H](Cc1ccccc1)NC(C)=O)[C@@H](C)CC)C(C)C)C(=O)N[C@@]1(C)CCCC=CCCC[C@@](C)(C(=O)N[C@@H](CCCC)C(=O)NCC(=O)N[C@@H](CC(C)C)C(=O)N[C@@H](CC(=O)O)C(=O)N[C@@H](CCCNC(=N)N)C(=O)N[C@H](C(=O)N[C@@H](CCCCN)C(=O)N[C@@H](CCC(=O)O)C(=O)N[C@@H](CC(C)C)C(=O)N2CCC[C@H]2C(=O)N[C@@H](CCC(=O)O)C(=O)N[C@@H](CC(C)C)C(=O)N[C@@H](Cc2c[nH]c3ccccc23)C(=O)N[C@@H](CC(C)C)C(N)=O)[C@@H](C)CC)NC(=O)[C@H]([C@@H](C)CC)NC(=O)[C@H](C(C)C)NC(=O)[C@H](CC(C)C)NC1=O [SP-2] (Ac-FIDEEVL[Nle][S5]LVI[S5][Nle]GLDRIKELPELWL-NH2; staple 9-13) | 400 to 700 nM |
| CCCC[C@H](NC(=O)[C@H](CCC(=O)O)NC(=O)[C@@H](NC(=O)[C@@H](NC(=O)[C@H](CC(C)C)NC(=O)[C@]1(C)CCCC=CCCC[C@](C)(NC(=O)[C@H](CCC(=O)O)NC(=O)[C@H](CC(=O)O)NC(=O)[C@@H](NC(=O)[C@H](CC(N)=O)NC(=O)[C@@H](NC(=O)[C@H](CCC(N)=O)NC(=O)[C@]2(C)CCCC=CCCC[C@](C)(NC(=O)[C@H](CC(C)C)NC(=O)[C@H](CCC(=O)O)NC(=O)[C@H](CCC(=O)O)NC(=O)CNC(=O)[C@H](CCC(N)=O)NC(=O)[C@H](CC(C)C)NC(=O)[C@H](CC(C)C)NC(C)=O)C(=O)N[C@@H](CCCNC(=N)N)C(=O)N[C@@H](C)C(=O)N[C@@H](CC(C)C)C(=O)N2)C(C)C)[C@@H](C)CC)C(=O)N[C@@H](C(C)C)C(=O)N[C@@H](CC(C)C)C(=O)N[C@@H](CCCC)C(=O)N1)C(C)C)[C@@H](C)CC)C(=O)NCC(N)=O [SP-327] (Ac-LLQGEEL[S5]RAL[S5]QVNIDE[S5]VL[Nle][S5]LVIE[Nle]G-NH2; staple 8-12, 19-23) | > 700 nM |
| CC[C@H](C)[C@H](NC(=O)[C@H](CCCNC(=N)N)NC(=O)[C@H](CC(=O)O)NC(=O)[C@H](CC(C)C)NC(=O)CNC(=O)[C@H](CCSC)NC(=O)[C@H](CCC(=O)O)NC(=O)[C@@H](NC(=O)[C@]1(C)CCCC=CCCCCCC[C@@](C)(NC(=O)[C@H](CC(=O)O)NC(=O)[C@@H](NC(=O)[C@H](Cc2ccccc2)NC(C)=O)[C@@H](C)CC)C(=O)N[C@@H](CCC(=O)O)C(=O)N[C@@H](C(C)C)C(=O)N[C@@H](CC(C)C)C(=O)N[C@@H](CCSC)C(=O)N[C@@H](CO)C(=O)N[C@@H](CC(C)C)C(=O)N1)[C@@H](C)CC)C(=O)N[C@@H](CCCCN)C(=O)N[C@@H](CCC(=O)O)C(=O)N[C@@H](CC(C)C)C(=O)N1CCC[C@H]1C(=O)N[C@@H](CCC(=O)O)C(=O)N[C@@H](CC(C)C)C(=O)N[C@@H](Cc1c[nH]c2ccccc12)C(=O)N[C@@H](CC(C)C)C(N)=O [SP-81] (Ac-FID[R8]EVLMSL[S5]IEMGLDRIKELPELWL-NH2; staple 4-11) | > 700 nM |
